T1: UNK ZnF1-3 (human, UniProt Q9C0B0 31-174)
T1 sequence: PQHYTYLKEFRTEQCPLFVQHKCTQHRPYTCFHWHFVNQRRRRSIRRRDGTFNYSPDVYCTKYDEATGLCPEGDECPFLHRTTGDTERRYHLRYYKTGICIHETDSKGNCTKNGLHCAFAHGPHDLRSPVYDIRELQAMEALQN

B1: chr7:89982137:89982138:+_ENSG00000105793_ENST00000417207|hu_mus|FALSE|FALSE (ssRNA)
RNA: GGGAGUUCUACAGUCCGACGAUCGGGUAACCCAUUCCACCGCUUCCUCCCUUGGUGAAGAUUCUCAGGUUAUCAAUGAAAUUUCCAUACUUUCUCAACAAAGCGCAACCGCAGCGCACCAUGAGCUCCAAGGGGCAGGACUCCCAACAGAGGAUUGAGCAUCA
B2: chr16:20502619:20502620:+_ENSMUSG00000003235_ENSMUST00000003320|mus_mus|motif|central (ssRNA)
RNA: GGGAGUUCUACAGUCCGACGAUCGUCAGCACAAACAGCUGAGUACAUGUGUAGGUUGGAGACCCGGGCACCAUAUUCCCGGGUUGUCACAUGCAAGUGAAUCUGGUUUCCUAGGACCUCCUCAUUCAUUAAUAUGCCUCGUACCAACAGAGGAUUGAGCAUCA
B3: chr12:15822463:15822464:-_ENSMUSG00000020601_ENSMUST00000020922|mus_mus|FALSE|FALSE (ssRNA)
RNA: GGGAGUUCUACAGUCCGACGAUCAAAAGGAUCAAGAAGGGAGGGGACCCGUCUGGGGCUCCGUGGAGGAAGAGUUAAGAACUAGCCCCCAGAUGGGCGCUGCAGGGCUGGUCCCCGGCUGCGAGCCCCGCUCCCGGGGGUGCUCAACAGAGGAUUGAGCAUCA
B4: chr11:77378495:77378496:-_ENSG00000048649_ENST00000308488|hu_hu|FALSE|FALSE (ssRNA)
RNA: GGGAGUUCUACAGUCCGACGAUCUGAAUACUCGUCUGUGCUUCGGCCCCGCUUUCGAACUGACCGCUUUGAUUCUUUAGCUAGCUCAUCAUCUUCAGAGUUCUUGGACAAAUAGCUCUCUUCACUCUCUGAGCUGGAAAGUCUCAACAGAGGAUUGAGCAUCA
B5: 58873064_58873184_2849_3pUTR_ENSMUSG00000025092_ENSMUST00000066285|mouse|control|control (ssRNA)
RNA: GGGAGUUCUACAGUCCGACGAUCCUAUCUACCCAUUUGGUCAUCCACUCAGGAGUCUCAGAAUGUAUACUCUCCAGAGAAGGGGGUACUGCUGUAAUUUGGGGUACCUCACUAACUCUUCAGUGUACAGGUUCCACCAAAGCACAACAGAGGAUUGAGCAUCA
B6: 66274184_66274304_2207_3pUTR_ENSMUSG00000024098_ENSMUST00000024906|mouse|control|control (ssRNA)
RNA: GGGAGUUCUACAGUCCGACGAUCUAAAAUUGAACCUGUGUAUUAUAGAUAUUUGUUUUUGAUUCAUGCUUGAAGGUGAGAAUUUUAUUACUAGGAAGGGCGUGUAGUAAUGAAGCUCAGCACUAUGGAAACGCUAGGUAAGAACAACAGAGGAUUGAGCAUCA
B7: 31334811_31336003_1596_CDS_ENSMUSG00000021962_ENSMUST00000022535|mouse|control|control (ssRNA)
RNA: GGGAGUUCUACAGUCCGACGAUCCCUGGGAACCGUUUGCUGGAACACACUGGGGGACAGCAGGACUGAAGAUACUGCUGUGGUGGUUGCAGGAACCAAUGGAGAGCCUGCAAUCGGGAUGGCACUGGGUAACACCUUAGGCUGCAACAGAGGAUUGAGCAUCA
B8: 168344084_168344669_3204_CDS_ENSG00000130396_ENST00000400822|human|control|control (ssRNA)
RNA: GGGAGUUCUACAGUCCGACGAUCUACUUCCAGUGUCACCACAGAGCUUGUUCUUGUCAUGAGUUCUGCCGCCCUUUCCUGAGAGAGUCCAACCAGACUUCGUCCAUCCACACUGAGGAGCUGAUCACCUGCAGCUAGACGUCCCAACAGAGGAUUGAGCAUCA
B9: chr18:47008509:47008510:-_ENSG00000177576_ENST00000318240|hu_mus|motif|central (ssRNA)
RNA: GGGAGUUCUACAGUCCGACGAUCGCUCACACGGACCUUCUAUUUGUUCAUAUCAGUAAAUUGGAAUAAUAGAAAUGAAAGCGGCUUUAAUGAAAAAGAAACUCAGGGGUGAGAUCAUUAAAUAUAACUACUGGAAUUUUAAAUCAACAGAGGAUUGAGCAUCA
B10: chr14:39627603:39627604:-_ENSG00000182400_ENST00000330149|hu_mus|motif|central (ssRNA)
RNA: GGGAGUUCUACAGUCCGACGAUCGAACUUCAUGAUGUCUAAUUCAUCCUUGAACCUUGCAGUAUCUUUCGUAAACCUUUCGGUCAGUCCUUGCCCCACUCGGAACCCCAUGCUCUCCAGCUUAGUAACACACCUUCCAUUUUCCAACAGAGGAUUGAGCAUCA
B11: chr11:77376804:77376805:-_ENSG00000048649_ENST00000308488|hu_mus|motif|central (ssRNA)
RNA: GGGAGUUCUACAGUCCGACGAUCUGGAUUUUAAUAGAAGUAUAUAAUGGCCAAAGGCCAAAACUACAUUCAAACCCUGCGGAUAUAUCCAGGCCGAUAGAAAAUUCACACACACACACACACACACACACACACACACACACACAACAGAGGAUUGAGCAUCA
B12: chr12:76570751:76570752:-_ENSMUSG00000021051_ENSMUST00000021447|perfect_dup|FALSE|FALSE (ssRNA)
RNA: GGGAGUUCUACAGUCCGACGAUCUGUUUCAUAAACAAACCUUAGAAAAAUAUUGUUAAUCUGUUUUCGGAUAAAUGCUCUAAGACCAAGAAACUUGCCAUAAAUUCUGUGUAAGACUGUUUUUAAGUAGUCCCGUUCCCGAGGCAACAGAGGAUUGAGCAUCA
B13: chr16:94915998:94915999:+_ENSMUSG00000022897_ENSMUST00000023614|mus_mus|FALSE|FALSE (ssRNA)
RNA: GGGAGUUCUACAGUCCGACGAUCCGCCCUCCUGACAGUGCUGUGCUCAAGGUGAGGCCUCUGUACGGAAAUGCUCAUCAACUACCAAGCUCAAAACAAUCCACAGGCUUGACAUUUAAUUACAAAAUCAAUAUGGGUUUCCUGCAACAGAGGAUUGAGCAUCA
B14: chr5:21408736:21408737:-_ENSMUSG00000042453_ENSMUST00000161356|mus_hu|mus_mus_mus_hu_False|28_78 (ssRNA)
RNA: GGGAGUUCUACAGUCCGACGAUCGUUGACAGAGUUGUAGAUGGUGGCUUCAUGGAACUGGAACGGGGAGCAGCCAAUGCUGUUAGAAGAGGAAGGAAGGCACUGGGUCUGCACGAGCUGCCAGGAAUCCGAUCUUGCAUCCUUCAACAGAGGAUUGAGCAUCA
B15: chr7:141445308:141445309:+_ENSG00000106028_ENST00000265304|hu_mus|FALSE|FALSE (ssRNA)
RNA: GGGAGUUCUACAGUCCGACGAUCUAUGAUUGUUGUUGCUUGCCGCCUCACAUUGUUUUUAUCCAUGUACUCGCCAUAGUCCACUUUCCCUUCCACAAAUAUACGAGCCCCCUUUUUCACAUACUGAUAUGCCACAUCUCUGAGCAACAGAGGAUUGAGCAUCA
B16: chrX:20248820:20248821:+_ENSMUSG00000001924_ENSMUST00000001989|mus_mus|mus_mus_mus_hu_True|58_58 (ssRNA)
RNA: GGGAGUUCUACAGUCCGACGAUCGGCGAAGUCCGUCACCACAAAGUCAGGUUCUGCCAGUGAGGCCACCAAGGAUUUAAAACUAAUCUUCUUAGGUACUUUGACCUGACUGACGAUGCCUCCACGGAUGUAGUCGGAGAAGUUCAACAGAGGAUUGAGCAUCA
B17: chr15:31385891:31385892:-_ENSMUSG00000039100_ENSMUST00000090227|mus_hu|motif|central (ssRNA)
RNA: GGGAGUUCUACAGUCCGACGAUCUCUACAAUAGUUAUUCCUAGACCUUAGAUUAGUCAUUACAUUUUUAUUUAAGGUACGGUGUUACUUUCAUGACUACAAAAUGAGGCACUCGUACAAAACAGGAAUGAAAACAUACAUAUACAACAGAGGAUUGAGCAUCA
B18: chr9:95013113:95013114:-_ENSG00000196305_ENST00000443024|hu_hu|hu_hu_hu_mus_False|8_28 (ssRNA)
RNA: GGGAGUUCUACAGUCCGACGAUCCUCAGUCAGAAAGGGCGUGUAAGGGGCCAUCAGUCUGCACAGAGAAAGCAGGACACUGAACAGUGUCUCCAGAGCCAUGACACAAUCCUCCAUCCCACUCUCACCCUUUAAUCUCCUCCUCAACAGAGGAUUGAGCAUCA
B19: chr5:32599118:32599119:+_ENSG00000113387_ENST00000502897|hu_hu|FALSE|FALSE (ssRNA)
RNA: GGGAGUUCUACAGUCCGACGAUCAGAAAUACCUUUUCUUCCUGGUUUCAUUUCACCUUCAGGAUCCAUCCAAUAUUCUCUAAUAUCAAUUAGCACUUUGCCUUUAAAAUCGCGAACACUAACGUACCUCAUUUUCCCAAUCUGCAACAGAGGAUUGAGCAUCA
B20: chr3:176740097:176740098:-_ENSG00000177565_ENST00000430069|hu_mus|hu_hu_hu_mus_True|8_48 (ssRNA)
RNA: GGGAGUUCUACAGUCCGACGAUCUGUUUUGUAUACCACAAAAGGAGGCACUUUCAGUAUCUGCAAAAGGUGUUUAGUCCUAAAACAUACUUACCUAGAGGAUAACUCAGGAAAACAAUCUGUUACACUAGUAUCUAUACUCCACAACAGAGGAUUGAGCAUCA
B21: 170108086_170108206_2274_3pUTR_ENSG00000136603_ENST00000458537|human|control|control (ssRNA)
RNA: GGGAGUUCUACAGUCCGACGAUCUGUUGUUUUAAAUAAGUUCUCAUUACUUCUUCCAUGAUUUUUCCCUUAUCAUCCUCACAAAUGACAUCUUUCACAAGAAGCGGAGAUGAAGCGGCAGCAACAAGGCCAAUUCCCACUUUGCAACAGAGGAUUGAGCAUCA
B22: chr1:220276048:220276049:+_ENSG00000067704_ENST00000302637|hu_hu|hu_hu_hu_mus_True|1_98 (ssRNA)
RNA: GGGAGUUCUACAGUCCGACGAUCGCAAAUUGCCUGGUUGGCUGGAAUUGUCCAAGGCUGGGUGGUCCAAACUAAAACGCUAACAGGGGAUGAGGCAUCUGUAAGAGACUCCAACUUCGGAGGAGGUCUCAGGAGGGGAAAUUUCAACAGAGGAUUGAGCAUCA

The other results are listed elsewhere or left out.

This assay addresses T1, UNK ZnF1-3. As to the kind of experiment: nsRBNS (natural sequence RNA bind-n-seq); RBNS binding buffer (assumed for nsRBNS): 25 mM Tris pH 7.5, 150 mM KCl, 3 mM MgCl2, 0.01% Triton X-100, 500 ug/ml BSA, 20 U/ml SUPERase-In, 4 C; UNK is unkempt and MSI1 is Musashi-1; names of the RNAs are library labels; protein concentration not given here; high values mean tight binding.
Molecule B1 yielded a binding signal of 1.29 enrichment R.
For the molecule B2, the binding signal was found to be 1.2 enrichment R.
The molecule B3 registered a binding signal of 0.946 enrichment R.
Turning to B4, the binding signal was determined as 0.535 enrichment R.
B5: the binding signal stood at 0.93 enrichment R.
Next, B6: 2.06 enrichment R.
Then B7, with 1.42 enrichment R; and B8, with 1.31 enrichment R; and B9, with 1.88 enrichment R.
Then B10, with 0.809 enrichment R.
Molecule B11 yielded a binding signal of 2.1 enrichment R.
Next, B12: 2.19 enrichment R; B13: 1.81 enrichment R; B14: 1.67 enrichment R.
B15: the binding signal was determined as 0.634 enrichment R.
Then B16, with 0.935 enrichment R.
On to B17, for which the binding signal was determined as 0.714 enrichment R.
For the molecule B18, the binding signal is 1.27 enrichment R.
Next, B19: 0.824 enrichment R.
Next, B20: 0.802 enrichment R; B21: 1.32 enrichment R; B22: 1.3 enrichment R.

These data come from paper PMC12136788.
